# Paper PMC5892938
# Some of the results follow. At the low end of the ranking the order means little.
# Molecular target: GST-SBP-SLBP (stem-loop binding protein) (UniProt Q14493)
# Assay: targeted RNA Bind-n-Seq;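 note: DESeq read counts versus GST-SBP nonspecific binding control pulldown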
# Details: RBNS binding buffer: 25 mM Tris pH 7.5, 150 mM KCl, 3 mM MgCl2, 0.1% Tween, 0.5 mg/mL BSA, 1 mM DTT; 27 nM protein, 750 pM RNA pool; temperature not stated; high values mean tight binding
row,Sequence,binding signal (log2 fold change)
1,GGUCACGUCUCAAUCAACUCUUAAGAGGGGGGGAAAACCCCUUUACCCUCAACCUCAACAGCUCGCAGUCAAG,0.132
2,GGUCACGUCUCAAUCAACUCUCAAGAGGGGGGGAAAACCCCUUUACCCUCCAACUCAACAGCUCGCAGUCAAG,-0.364
3,GGUCACGUCUCAAUCAACUCUUUAGAGGGGGGGAAAACCCCUUUGCCCUCACACUCAACAGCUCGCAGUCAAG,-0.119
4,GGUCACGUCUCAAUCAACUCUUCAGAGGGGGGGAAAACCCCUUUGCCCUCAAUUUCAACAGCUCGCAGUCAAG,0.337
5,GGUCACGUCUCAAUCAACUCAAUCCCCAGGGAAAGCCCUGGCAUUUUCAACAGCUCGCAGUCAAG,-0.0501
6,GGUCACGUCUCAAUCAACUCUCCCGAGGGGGGGAAAACCCCUUUACCCUCACACUCAACAGCUCGCAGUCAAG,-0.392
7,GGUCACGUCUCAAUCAACUCCCAAGAGGGGGGGAAAACCCCUUUGCCCUCAUUAUCAACAGCUCGCAGUCAAG,-0.254
8,GGUCACGUCUCAAUCAACUCAUAAGAGGGGGGGAAAACCCCUUUACCCUCGGAAUCAACAGCUCGCAGUCAAG,-0.0551
9,GGUCACGUCUCAAUCAACUCAUCAGAGGGGGGGAAAACCCCUUUACCCUCCCAAUCAACAGCUCGCAGUCAAG,0.081
10,GGUCACGUCUCAAUCAACUCAUUCUCAGGAGUUUUCUCCUGUUUAGUCAACAGCUCGCAGUCAAG,0.103
11,GGUCACGUCUCAAUCAACUCUACUUCAGGAGUUUACUCCUGCUAAUUCAACAGCUCGCAGUCAAG,0.0554
12,GGUCACGUCUCAAUCAACUCUUCCCCCAGGGAAAGCCCUGGUUAUCUCAACAGCUCGCAGUCAAG,0.0247
13,GGUCACGUCUCAAUCAACUCUUCUUCAGGAGUUUACUCCUGUAAAUUCAACAGCUCGCAGUCAAG,0.2
14,GGUCACGUCUCAAUCAACUCUUUCUCCAGGGAAAGCCCUGGCAUAUUCAACAGCUCGCAGUCAAG,-0.098
15,GGUCACGUCUCAAUCAACUCUAUUUCAGGAGUUUUCUCCUGCAUUCUCAACAGCUCGCAGUCAAG,0.044
16,GGUCACGUCUCAAUCAACUCUAUUUCCAGGGAAAACCCUGGCAUAUUCAACAGCUCGCAGUCAAG,0.00607
17,GGUCACGUCUCAAUCAACUCAACUUCCAGGGAAAACCCUGGCUUUCUCAACAGCUCGCAGUCAAG,0.183
18,GGUCACGUCUCAAUCAACUCUACUUCAGGAGUUUCCUCCUGUUUUUUCAACAGCUCGCAGUCAAG,-0.139
19,GGUCACGUCUCAAUCAACUCUAGUCCCAGGGAAAGCCCUGGCAAUCUCAACAGCUCGCAGUCAAG,-0.178
20,GGUCACGUCUCAAUCAACUCCCUCGAGGGGGGGAAAACCCCUUUACCCUCCAAAUCAACAGCUCGCAGUCAAG,-0.253
